{"source": "the supplement of paper PMC8728848", "binders": {"B1": {"name": "DC-SIGN (Canis lupus), XP_853402 (protein)", "chain": "AGLCRPCPWKWELFQESCYFFSQTQNTWKESISACQNLRAQLVIINSTEEQKFLKSWNTRNNQRTWIGLSDHHNEGSWKWVDNTPLQLSFWKEGEPNNHGDEDCVELYSDGWNDNRCSTENFWICKKPSSPCPGPGLNDIFEAQKIEWHE"}}, "assay_in_all_cases": "glycan array binding signal (z-score within array); higher = stronger binding", "details_in_all_cases": "glycan notation: IUPAC condensed, linker removed", "key": {"[1]": {"biological_target": "Gal(b1-3)[Fuc(a1-4)]GlcNAc", "outline": "(§1)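 Glycan array data were curated from 3228 arrays in the Consortium for Functional Glycomics database and kept only where the protein sequence was available. Glycan names were converted to IUPAC-condensed notation, and columns mapping to the same glycan were averaged. The binding signal is a within-array Z-score, averaged across arrays of the same protein sequence at different concentrations or buffers and across linkers. Negative Z-scores can be read as non-binding.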"}, "[2]": {"biological_target": "Gal(b1-3)[Fuc(a1-4)]GlcNAc(b1-2)Man(a1-3)[Gal(b1-3)[Fuc(a1-4)]GlcNAc(b1-2)Man(a1-6)]Man(b1-4)GlcNAc(b1-4)GlcNAc", "outline": "as §1"}, "[3]": {"biological_target": "Gal(b1-3)[Fuc(a1-4)]GlcNAc(b1-2)Man(a1-3)[Gal(b1-3)[Fuc(a1-4)]GlcNAc(b1-2)Man(a1-6)]Man(b1-4)GlcNAc(b1-4)[Fuc(a1-6)]GlcNAc", "outline": "as §1"}, "[4]": {"biological_target": "Gal(b1-3)[Fuc(a1-4)]GlcNAc(b1-3)Gal(b1-3)[Fuc(a1-4)]GlcNAc", "outline": "as §1"}, "[5]": {"biological_target": "Gal(b1-3)[Fuc(a1-4)]GlcNAc(b1-3)Gal(b1-4)GlcNAc", "outline": "as §1"}, "[6]": {"biological_target": "Gal(b1-3)[Fuc(a1-4)]GlcNAc(b1-3)Gal(b1-4)[Fuc(a1-3)]GlcNAc", "outline": "as §1"}, "[7]": {"biological_target": "Gal(b1-3)[GlcNAc(b1-6)]GalNAc", "outline": "as §1"}, "[8]": {"biological_target": "Gal(b1-3)[Neu5Ac(a2-6)]GalNAc", "outline": "as §1"}, "[9]": {"biological_target": "Gal(b1-3)[Neu5Ac(a2-6)]GlcNAc(b1-6)Gal(b1-4)Glc", "outline": "as §1"}, "[10]": {"biological_target": "Gal(b1-3)[Neu5Ac(b2-6)]GalNAc", "outline": "as §1"}, "[11]": {"biological_target": "Gal(b1-4)GalNAc(a1-3)[Fuc(a1-2)]Gal(b1-4)GlcNAc", "outline": "as §1"}, "[12]": {"biological_target": "Gal(b1-4)GalNAc(b1-3)[Fuc(a1-2)]Gal(b1-4)GlcNAc", "outline": "as §1"}, "[13]": {"biological_target": "Gal(b1-4)Glc", "outline": "as §1"}, "[14]": {"biological_target": "Gal(b1-4)Glc6S", "outline": "as §1"}, "[15]": {"biological_target": "Gal(b1-4)GlcNAc", "outline": "as §1"}, "[16]": {"biological_target": "Gal(b1-4)GlcNAc(a1-6)Gal(b1-4)GlcNAc", "outline": "as §1"}, "[17]": {"biological_target": "Gal(b1-4)GlcNAc(b1-2)Man(a1-3)Man(b1-4)GlcNAc(b1-4)GlcNAc", "outline": "as §1"}, "[18]": {"biological_target": "Gal(b1-4)GlcNAc(b1-2)Man(a1-3)[Gal(b1-4)GlcNAc(b1-2)Man(a1-6)]Man(b1-4)GlcNAc(b1-4)GlcNAc", "outline": "as §1"}, "[19]": {"biological_target": "Gal(b1-4)GlcNAc(b1-2)Man(a1-3)[Gal(b1-4)GlcNAc(b1-2)Man(a1-6)]Man(b1-4)GlcNAc(b1-4)[Fuc(a1-6)]GlcNAc", "outline": "as §1"}, "[20]": {"biological_target": "Gal(b1-4)GlcNAc(b1-2)Man(a1-3)[Man(a1-6)]Man(b1-4)GlcNAc(b1-4)GlcNAc", "outline": "as §1"}, "[21]": {"biological_target": "Gal(b1-4)GlcNAc(b1-2)Man(a1-6)Man(b1-4)GlcNAc(b1-4)GlcNAc", "outline": "as §1"}, "[22]": {"biological_target": "Gal(b1-4)GlcNAc(b1-2)Man(a1-6)[Man(a1-3)]Man(b1-4)GlcNAc(b1-4)GlcNAc", "outline": "as §1"}, "[23]": {"biological_target": "Gal(b1-4)GlcNAc(b1-2)[Gal(b1-4)GlcNAc(b1-4)]Man(a1-3)[Gal(b1-4)GlcNAc(b1-2)Man(a1-6)]Man(b1-4)GlcNAc(b1-4)GlcNAc", "outline": "as §1"}, "[24]": {"biological_target": "Gal(b1-4)GlcNAc(b1-3)Gal(b1-3)GlcNAc", "outline": "as §1"}, "[25]": {"biological_target": "Gal(b1-4)GlcNAc(b1-3)Gal(b1-4)Glc", "outline": "as §1"}, "[26]": {"biological_target": "Gal(b1-4)GlcNAc(b1-3)Gal(b1-4)GlcNAc", "outline": "as §1"}, "[27]": {"biological_target": "Gal(b1-4)GlcNAc(b1-3)Gal(b1-4)GlcNAc(b1-3)Gal(b1-4)GlcNAc", "outline": "as §1"}, "[28]": {"biological_target": "Gal(b1-4)GlcNAc(b1-3)Gal(b1-4)[Fuc(a1-3)]GlcNAc(b1-3)Gal(b1-4)[Fuc(a1-3)]GlcNAc", "outline": "as §1"}, "[29]": {"biological_target": "Gal(b1-4)GlcNAc(b1-3)GalNAc", "outline": "as §1"}, "[30]": {"biological_target": "Gal(b1-4)GlcNAc(b1-3)[Gal(b1-4)GlcNAc(b1-6)]Gal(b1-4)GlcNAc", "outline": "as §1"}, "[31]": {"biological_target": "Gal(b1-4)GlcNAc(b1-3)[GlcNAc(b1-6)]Gal(b1-4)GlcNAc", "outline": "as §1"}, "[32]": {"biological_target": "Gal(b1-4)GlcNAc(b1-6)Gal(b1-4)GlcNAc", "outline": "as §1"}, "[33]": {"biological_target": "Gal(b1-4)GlcNAc(b1-6)Gal(b1-4)GlcNAc(b1-6)GalNAc", "outline": "as §1"}, "[34]": {"biological_target": "Gal(b1-4)GlcNAc(b1-6)GalNAc", "outline": "as §1"}, "[35]": {"biological_target": "Gal(b1-4)GlcNAc(b1-6)[Gal(b1-3)]GalNAc", "outline": "as §1"}, "[36]": {"biological_target": "Gal3S(b1-3)GalNAc", "outline": "as §1"}, "[37]": {"biological_target": "Gal3S(b1-3)GlcNAc", "outline": "as §1"}, "[38]": {"biological_target": "Gal3S(b1-3)[Fuc(a1-4)]GlcNAc", "outline": "as §1"}, "[39]": {"biological_target": "Gal3S(b1-4)Glc", "outline": "as §1"}, "[40]": {"biological_target": "Gal3S(b1-4)Glc6S", "outline": "as §1"}, "[41]": {"biological_target": "Gal3S(b1-4)GlcNAc", "outline": "as §1"}, "[42]": {"biological_target": "Gal3S(b1-4)GlcNAc6S", "outline": "as §1"}, "[43]": {"biological_target": "Gal3S(b1-4)[Fuc(a1-3)]Glc", "outline": "as §1"}, "[44]": {"biological_target": "Gal3S4S(b1-4)GlcNAc", "outline": "as §1"}, "[45]": {"biological_target": "Gal3S6S(b1-4)GlcNAc", "outline": "as §1"}}, "note": "This is one part of the list."}
{"binder": "B1", "values": [{"measurement": "glycan array binding signal (z-score)", "setting": "[1]", "value": -0.153}, {"measurement": "glycan array binding signal (z-score)", "setting": "[2]", "value": 0.754}, {"measurement": "glycan array binding signal (z-score)", "setting": "[3]", "value": 5.73}, {"measurement": "glycan array binding signal (z-score)", "setting": "[4]", "value": -0.113}, {"measurement": "glycan array binding signal (z-score)", "setting": "[5]", "value": -0.293}, {"measurement": "glycan array binding signal (z-score)", "setting": "[6]", "value": 0.143}, {"measurement": "glycan array binding signal (z-score)", "setting": "[7]", "value": -0.212}, {"measurement": "glycan array binding signal (z-score)", "setting": "[8]", "value": -0.216}, {"measurement": "glycan array binding signal (z-score)", "setting": "[9]", "value": -0.196}, {"measurement": "glycan array binding signal (z-score)", "setting": "[10]", "value": -0.169}, {"measurement": "glycan array binding signal (z-score)", "setting": "[11]", "value": -0.255}, {"measurement": "glycan array binding signal (z-score)", "setting": "[12]", "value": -0.176}, {"measurement": "glycan array binding signal (z-score)", "setting": "[13]", "value": -0.159}, {"measurement": "glycan array binding signal (z-score)", "setting": "[14]", "value": -0.171}, {"measurement": "glycan array binding signal (z-score)", "setting": "[15]", "value": -0.269}, {"measurement": "glycan array binding signal (z-score)", "setting": "[16]", "value": -0.306}, {"measurement": "glycan array binding signal (z-score)", "setting": "[17]", "value": -0.277}, {"measurement": "glycan array binding signal (z-score)", "setting": "[18]", "value": -0.314}, {"measurement": "glycan array binding signal (z-score)", "setting": "[19]", "value": -0.38}, {"measurement": "glycan array binding signal (z-score)", "setting": "[20]", "value": -0.268}, {"measurement": "glycan array binding signal (z-score)", "setting": "[21]", "value": -0.292}, {"measurement": "glycan array binding signal (z-score)", "setting": "[22]", "value": -0.247}, {"measurement": "glycan array binding signal (z-score)", "setting": "[23]", "value": -0.262}, {"measurement": "glycan array binding signal (z-score)", "setting": "[24]", "value": -0.125}, {"measurement": "glycan array binding signal (z-score)", "setting": "[25]", "value": -0.251}, {"measurement": "glycan array binding signal (z-score)", "setting": "[26]", "value": -0.203}, {"measurement": "glycan array binding signal (z-score)", "setting": "[27]", "value": -0.222}, {"measurement": "glycan array binding signal (z-score)", "setting": "[28]", "value": -0.072}, {"measurement": "glycan array binding signal (z-score)", "setting": "[29]", "value": -0.237}, {"measurement": "glycan array binding signal (z-score)", "setting": "[30]", "value": -0.277}, {"measurement": "glycan array binding signal (z-score)", "setting": "[31]", "value": -0.188}, {"measurement": "glycan array binding signal (z-score)", "setting": "[32]", "value": -0.212}, {"measurement": "glycan array binding signal (z-score)", "setting": "[33]", "value": -0.091}, {"measurement": "glycan array binding signal (z-score)", "setting": "[34]", "value": -0.232}, {"measurement": "glycan array binding signal (z-score)", "setting": "[35]", "value": -0.253}, {"measurement": "glycan array binding signal (z-score)", "setting": "[36]", "value": 0.029}, {"measurement": "glycan array binding signal (z-score)", "setting": "[37]", "value": -0.026}, {"measurement": "glycan array binding signal (z-score)", "setting": "[38]", "value": -0.098}, {"measurement": "glycan array binding signal (z-score)", "setting": "[39]", "value": -0.111}, {"measurement": "glycan array binding signal (z-score)", "setting": "[40]", "value": -0.131}, {"measurement": "glycan array binding signal (z-score)", "setting": "[41]", "value": -0.113}, {"measurement": "glycan array binding signal (z-score)", "setting": "[42]", "value": -0.224}, {"measurement": "glycan array binding signal (z-score)", "setting": "[43]", "value": 0.185}, {"measurement": "glycan array binding signal (z-score)", "setting": "[44]", "value": -0.233}, {"measurement": "glycan array binding signal (z-score)", "setting": "[45]", "value": -0.036}]}
